Experimental data published in the supplement of paper PMC4166925.
± gives the standard deviation of the averaged measurements. The full ranking holds about 33,000 sequences; the median of “E-score (dimensionless, -0.5 to 0.5)” is about -0.049, and the highest 2% start at about 0.37. This is one part of the list.

What follows are sequences tested on T1, PmTbr T-box DNA-binding domain (GST fusion) (assay: PBM E-score of 8-mer (E-score (dimensionless, -0.5 to 0.5)); Tbr is Tbrain of the sea star Patiria miniata (Pm) or the sea urchin Strongylocentrotus purpuratus (Sp); higher = stronger binding preference; most listed sequences are background and not binding sites). Conditions: the construct has about 5 more residues each side.
T1 sequence: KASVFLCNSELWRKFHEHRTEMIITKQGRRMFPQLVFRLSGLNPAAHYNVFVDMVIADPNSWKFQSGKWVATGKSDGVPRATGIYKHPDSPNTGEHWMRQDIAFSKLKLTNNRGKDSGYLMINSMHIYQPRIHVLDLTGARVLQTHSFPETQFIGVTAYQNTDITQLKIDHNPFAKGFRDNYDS
Method in brief: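 Using the Universal PBM Analysis Suite, every ungapped 8-mer received an enrichment E-score averaged over duplicate arrays. Probe intensities came from double-stranded Universal Agilent oligonucleotide arrays incubated with 200 nM GST-fused Tbr T-box DNA-binding domain in PBS (pH 7.5). That protein was expressed in BL21 E. coli at 20 °C and purified by glutathione affinity chromatography.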

Sequence | PBM E-score of 8-mer
AACGAATC | -0.0499 ± 0.0029
AGTCCCAT | -0.282 ± 0.038
TCTGTCCA | -0.185 ± 0.028
GAACCCTA | -0.0769 ± 0.011
AGAGTTTC | -0.192 ± 0.11
CAGGAGTA | -0.236 ± 0.022
CGGATTTC | -0.0586 ± 0.028
AAATCTCG | -0.0345 ± 0.022
TCAGGGGA | -0.197 ± 0.022
CCCCGCAA | -0.0622 ± 0.043
CCACCTTC | 0.31 ± 0.02
CAGTGAGG | -0.123 ± 0.082
GGTTCGAA | -0.0605 ± 0.056
CCTCTCAA | 0.0677 ± 0.046
ACAAGCAG | -0.142 ± 0.057
CACTTGCG | 0.376 ± 0.019
ATGTGCGC | 0.138 ± 0.0009
AGGCGTAG | 0.0703 ± 0.0097
CGCTCGGC | -0.148 ± 0.02
CCCGACCA | -0.0729 ± 0.075
CAGTGGAG | -0.068 ± 0.012
CGGCTTCA | -0.0682 ± 0.033

Sequence | PBM E-score of 8-mer
GTCCGCAC | 0.246 ± 0.0062
CAATTGCA | 0.123 ± 0.017
GATGAGCA | -0.0632 ± 0.0015
ACGGACGT | -0.113 ± 0.023
AATAGAAA | -0.0863 ± 0.06
CACAAAGC | 0.0584 ± 0.0037
GTTGATTA | 0.0482 ± 0.0031
CAGCACAA | -0.132 ± 0.02
ACGGGGCT | -0.0217 ± 0.036
CTAATCAG | -0.0291 ± 0.027
TATCTACA | -0.0338 ± 0.029
CCGCCATC | -0.0994 ± 0.028
GAGGTAAC | -0.107 ± 0.075
ACAAGAAC | -0.0713 ± 0.045
CGCGGCCA | -0.0302 ± 0.045
AGAACTTG | -0.0645 ± 0.0036
AATGGCTG | -0.207 ± 0.038
GTAGCTTA | -0.103 ± 0.0071
CATCCTCC | -0.172 ± 0.04
ATTACTCG | -0.0674 ± 0.0033
ATACTGTG | 0.0781 ± 0.053
ATCATTAC | -0.136 ± 0.043

Sequence | PBM E-score of 8-mer
CAACCCTA | 0.0976 ± 0.048
ATAGTCGC | 0.167 ± 0.037
ATGTGAGA | 0.429 ± 0.0081
CGTGGCTC | -0.141 ± 0.022
CCGCATTC | -0.019 ± 0.026
ACCACTCA | 0.131 ± 0.049
CCTCGCCC | -0.0372 ± 0.055
AAGCCAGC | -0.236 ± 0.021
CCGGCCTA | -0.0303 ± 0.026
CTTCTATC | -0.198 ± 0.025
GCACATGC | 0.159 ± 0.0039
GATTAGAC | -0.0447 ± 0.044
CCGGATTA | -0.087 ± 0.0022
AGCGGACC | -0.0833 ± 0.074
GGTGCTAC | 0.434 ± 0.0055
ATACTCAC | 0.0718 ± 0.091
CGTACATC | -0.116 ± 0.063
ATGAGGGG | -0.0806 ± 0.096
GAGTAAGC | -0.0647 ± 0.012
CATAAACG | -0.149 ± 0.043
ACACATCG | 0.382 ± 0.017
CTGTCGCA | 0.224 ± 0.064

Sequence | PBM E-score of 8-mer
ATAACGGC | -0.0165 ± 0.059
ATTGCTTA | -0.151 ± 0.11
ACCAGAAT | -0.0127 ± 0.054
CAGCTTAG | -0.0623 ± 0.0095
ATTTGCAC | 0.289 ± 0.054
GGCGTCAA | 0.4094 ± 0.001
ATTTTGTG | 0.133 ± 0.025
ACCCGCAT | 0.062 ± 0.016
CCACAGCG | -0.0231 ± 0.073
GCCCGCCA | 0.0456 ± 0.056
CCTTGATC | -0.0826 ± 0.012
CGCCCCAG | -0.0528 ± 0.021
ACATGAAG | 0.121 ± 0.0073
CACAATGG | -0.107 ± 0.015
CATCATTA | -0.192 ± 0.049
GAGCATGC | -0.248 ± 0.00061
AGCGGCGG | 0.00717 ± 0.0067
AGCATATA | -0.237 ± 0.031
TTATATAA | -0.0846 ± 0.015
CTCTACAA | 0.142 ± 0.055
GGGTCAGA | -0.162 ± 0.057
AGATACAA | -0.122 ± 0.044

Sequence | PBM E-score of 8-mer
CACCGAGA | 0.0151 ± 0.0083
CCAACTGC | -0.104 ± 0.011
ACAGCGGA | -0.0398 ± 0.043
AAGCGGGA | -0.182 ± 0.029
AACCGCAC | 0.125 ± 0.064
ATTGACAC | 0.412 ± 0.0065
AAATCTGC | 0.138 ± 0.061
GCTCGCCC | -0.213 ± 0.052
CGGAAGGA | -0.209 ± 0.012
ACTGATAC | 0.13 ± 0.0021
ATGGTTCA | -0.00063 ± 0.045
GATAACTA | 0.0165 ± 0.034
CTAGCATA | -0.0116 ± 0.041
AACCCGTA | -0.199 ± 0.011
CTGAGCGC | -0.0658 ± 0.099
AAGGAGTC | -0.147 ± 0.012
AAATGGTA | -0.00884 ± 0.042
CTTGATCC | -0.0113 ± 0.059
AAAATGCC | -0.19 ± 0.021
CCTTAGAA | -0.23 ± 0.033
GTTCACAA | 0.3167 ± 0.0026
GCTGAGAC | -0.0471 ± 0.091
